{"source": "the supplement of paper PMC4604168 (melanoma cell lines)", "test_in_all_cases": "cell count relative to DMSO control; melanoma cells; higher = more viable cells", "details_in_all_cases": "library dose: low library concentration; 72 h", "key": {"WM115": {"system": "WM115"}, "WM1716": {"system": "WM1716"}, "WM1745": {"system": "WM1745"}, "WM3526": {"system": "WM3526"}, "WM3619": {"system": "WM3619"}, "WM451Lu": {"system": "WM451Lu"}}, "note": "The other results are listed elsewhere or left out. Single values are uncertain, as repeats are few or missing.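 Also: cell number obtained by counting DAPI-stained nuclei in high-throughput microscope images with image analysis software, screen run in 1,536-well plates.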", "data": [{"molecule": "Cc1cn(-c2cc(NC(=O)c3ccc(C)c(Nc4nccc(-c5cccnc5)n4)c3)cc(C(F)(F)F)c2)cn1", "note": "[nilotinib] + O=C(O)c1ccc(-c2c[nH]c3ncc(-c4ccccc4)cc23)cc1C1CCCC1 [GSK650394] (first compound 0.2 µM, partner dose 0.16 µM)", "values": [{"measurement": "cell count", "setting": "WM115", "result": 106, "unit": "%"}, {"measurement": "cell count", "setting": "WM1716", "result": 105, "unit": "%"}, {"measurement": "cell count", "setting": "WM1745", "result": 89.6, "unit": "%"}, {"measurement": "cell count", "setting": "WM3526", "result": 108, "unit": "%"}, {"measurement": "cell count", "setting": "WM3619", "result": 114, "unit": "%"}, {"measurement": "cell count", "setting": "WM451Lu", "result": 120, "unit": "%"}]}, {"molecule": "CC(C)C[C@H](NC(=O)[C@H](Cc1ccccc1)NC(=O)c1cnccn1)B(O)O", "note": "[Bortezomib] + CCc1ccc(CCOc2ccc(CC3SC(=O)NC3=O)cc2)nc1 [pioglitazone] (first compound 0.001 µM, partner dose 2 µM)", "values": [{"measurement": "cell count", "setting": "WM115", "result": 92.8, "unit": "%"}, {"measurement": "cell count", "setting": "WM1716", "result": 27.4, "unit": "%"}, {"measurement": "cell count", "setting": "WM1745", "result": 60.6, "unit": "%"}, {"measurement": "cell count", "setting": "WM3526", "result": 82.3, "unit": "%"}, {"measurement": "cell count", "setting": "WM3619", "result": 12, "unit": "%"}, {"measurement": "cell count", "setting": "WM451Lu", "result": 106, "unit": "%"}]}, {"molecule": "CC(C)C[C@H](NC(=O)[C@H](Cc1ccccc1)NC(=O)c1cnccn1)B(O)O", "note": "[Bortezomib] + O=C(O)c1ccc(-c2c[nH]c3ncc(-c4ccccc4)cc23)cc1C1CCCC1 [GSK650394] (first compound 0.001 µM, partner dose 0.16 µM)", "values": [{"measurement": "cell count", "setting": "WM115", "result": 89.8, "unit": "%"}, {"measurement": "cell count", "setting": "WM1716", "result": 30.4, "unit": "%"}, {"measurement": "cell count", "setting": "WM1745", "result": 57.2, "unit": "%"}, {"measurement": "cell count", "setting": "WM3526", "result": 80.8, "unit": "%"}, {"measurement": "cell count", "setting": "WM3619", "result": 19.2, "unit": "%"}, {"measurement": "cell count", "setting": "WM451Lu", "result": 72.4, "unit": "%"}]}, {"molecule": "Cc1cn(-c2cc(NC(=O)c3ccc(C)c(Nc4nccc(-c5cccnc5)n4)c3)cc(C(F)(F)F)c2)cn1", "note": "[nilotinib] + Cc1cc(Nc2cc(N3CCN(C)CC3)nc(/C=C/c3ccccc3)n2)n[nH]1 [ENMD2076] (first compound 0.2 µM, partner dose 0.04 µM)", "values": [{"measurement": "cell count", "setting": "WM115", "result": 95.3, "unit": "%"}, {"measurement": "cell count", "setting": "WM1716", "result": 87.9, "unit": "%"}, {"measurement": "cell count", "setting": "WM1745", "result": 84.1, "unit": "%"}, {"measurement": "cell count", "setting": "WM3526", "result": 113, "unit": "%"}, {"measurement": "cell count", "setting": "WM3619", "result": 113, "unit": "%"}, {"measurement": "cell count", "setting": "WM451Lu", "result": 83.6, "unit": "%"}]}, {"molecule": "Cn1c(=O)n(-c2ccc(C(C)(C)C#N)cc2)c2c3cc(-c4cnc5ccccc5c4)ccc3ncc21", "note": "+ CCCCCCCCCCCC1=C(O)C(=O)C=C(O)C1=O [Embelin] (first compound 0.004 µM, partner dose 1.2 µM)", "values": [{"measurement": "cell count", "setting": "WM115", "result": 94.3, "unit": "%"}, {"measurement": "cell count", "setting": "WM1716", "result": 108, "unit": "%"}, {"measurement": "cell count", "setting": "WM1745", "result": 97.1, "unit": "%"}, {"measurement": "cell count", "setting": "WM3526", "result": 82.2, "unit": "%"}, {"measurement": "cell count", "setting": "WM3619", "result": 87.1, "unit": "%"}, {"measurement": "cell count", "setting": "WM451Lu", "result": 94.6, "unit": "%"}]}, {"molecule": "Cc1cc(Nc2cc(N3CCN(C)CC3)nc(/C=C/c3ccccc3)n2)n[nH]1", "note": "+ CN1CCN(c2ccc3nc(-c4c(N)c5c(F)cccc5[nH]c4=O)[nH]c3c2)CC1 [Dovitinib] (first compound 0.04 µM, partner dose 0.1 µM)", "values": [{"measurement": "cell count", "setting": "WM115", "result": 110, "unit": "%"}, {"measurement": "cell count", "setting": "WM1716", "result": 98.8, "unit": "%"}, {"measurement": "cell count", "setting": "WM1745", "result": 89.9, "unit": "%"}, {"measurement": "cell count", "setting": "WM3526", "result": 76.5, "unit": "%"}, {"measurement": "cell count", "setting": "WM3619", "result": 106, "unit": "%"}, {"measurement": "cell count", "setting": "WM451Lu", "result": 98.5, "unit": "%"}]}, {"molecule": "COc1ccc(C2=N[C@@H](c3ccc(Cl)cc3)[C@@H](c3ccc(Cl)cc3)N2C(=O)N2CCNC(=O)C2)c(OC(C)C)c1", "note": "[Nutlin-3] + c1cc(-c2cnn3cc(-c4ccc(OCCN5CCCCC5)cc4)cnc23)ccn1 [Dorsomorphin] (first compound 0.1 µM, partner dose 0.4 µM)", "values": [{"measurement": "cell count", "setting": "WM115", "result": 80.3, "unit": "%"}, {"measurement": "cell count", "setting": "WM1716", "result": 103, "unit": "%"}, {"measurement": "cell count", "setting": "WM1745", "result": 93, "unit": "%"}, {"measurement": "cell count", "setting": "WM3526", "result": 86.4, "unit": "%"}, {"measurement": "cell count", "setting": "WM3619", "result": 88, "unit": "%"}, {"measurement": "cell count", "setting": "WM451Lu", "result": 105, "unit": "%"}]}, {"molecule": "CC(C)C[C@H](NC(=O)[C@H](Cc1ccccc1)NC(=O)c1cnccn1)B(O)O", "note": "[Bortezomib] + Nc1nc(F)nc2c1ncn2[C@@H]1O[C@H](CO)[C@@H](O)[C@@H]1O [fludarabine] (first compound 0.001 µM, partner dose 0.2 µM)", "values": [{"measurement": "cell count", "setting": "WM115", "result": 98, "unit": "%"}, {"measurement": "cell count", "setting": "WM1716", "result": 35.8, "unit": "%"}, {"measurement": "cell count", "setting": "WM1745", "result": 90.2, "unit": "%"}, {"measurement": "cell count", "setting": "WM3526", "result": 39, "unit": "%"}, {"measurement": "cell count", "setting": "WM3619", "result": 22.8, "unit": "%"}, {"measurement": "cell count", "setting": "WM451Lu", "result": 44.4, "unit": "%"}]}, {"molecule": "Cn1c(=O)n(-c2ccc(C(C)(C)C#N)cc2)c2c3cc(-c4cnc5ccccc5c4)ccc3ncc21", "note": "+ CS(=O)(=O)CCNCc1ccc(-c2ccc3ncnc(Nc4ccc(OCc5cccc(F)c5)c(Cl)c4)c3c2)o1 [lapatinib] (first compound 0.004 µM, partner dose 0.8 µM)", "values": [{"measurement": "cell count", "setting": "WM115", "result": 101, "unit": "%"}, {"measurement": "cell count", "setting": "WM1716", "result": 99.5, "unit": "%"}, {"measurement": "cell count", "setting": "WM1745", "result": 95.9, "unit": "%"}, {"measurement": "cell count", "setting": "WM3526", "result": 68, "unit": "%"}, {"measurement": "cell count", "setting": "WM3619", "result": 108, "unit": "%"}, {"measurement": "cell count", "setting": "WM451Lu", "result": 100, "unit": "%"}]}, {"molecule": "COc1ccc(C2=N[C@@H](c3ccc(Cl)cc3)[C@@H](c3ccc(Cl)cc3)N2C(=O)N2CCNC(=O)C2)c(OC(C)C)c1", "note": "[Nutlin-3] + CS(=O)(=O)CCNCc1ccc(-c2ccc3ncnc(Nc4ccc(OCc5cccc(F)c5)c(Cl)c4)c3c2)o1 [lapatinib] (first compound 0.1 µM, partner dose 0.8 µM)", "values": [{"measurement": "cell count", "setting": "WM115", "result": 90.4, "unit": "%"}, {"measurement": "cell count", "setting": "WM1716", "result": 137, "unit": "%"}, {"measurement": "cell count", "setting": "WM1745", "result": 121, "unit": "%"}, {"measurement": "cell count", "setting": "WM3526", "result": 102, "unit": "%"}, {"measurement": "cell count", "setting": "WM3619", "result": 108, "unit": "%"}, {"measurement": "cell count", "setting": "WM451Lu", "result": 122, "unit": "%"}]}, {"molecule": "CC(C)C[C@H](NC(=O)[C@H](Cc1ccccc1)NC(=O)c1cnccn1)B(O)O", "note": "[Bortezomib] + C#Cc1cccc(Nc2ncnc3cc(OCCOC)c(OCCOC)cc23)c1 [erlotinib] (first compound 0.001 µM, partner dose 0.8 µM)", "values": [{"measurement": "cell count", "setting": "WM115", "result": 108, "unit": "%"}, {"measurement": "cell count", "setting": "WM1716", "result": 32, "unit": "%"}, {"measurement": "cell count", "setting": "WM1745", "result": 30.9, "unit": "%"}, {"measurement": "cell count", "setting": "WM3526", "result": 85.5, "unit": "%"}, {"measurement": "cell count", "setting": "WM3619", "result": 11.2, "unit": "%"}, {"measurement": "cell count", "setting": "WM451Lu", "result": 84.4, "unit": "%"}]}, {"molecule": "Cn1c(=O)n(-c2ccc(C(C)(C)C#N)cc2)c2c3cc(-c4cnc5ccccc5c4)ccc3ncc21", "note": "+ Nc1ncn([C@H]2C[C@H](O)[C@@H](CO)O2)c(=O)n1 [decitabine] (first compound 0.004 µM, partner dose 0.1 µM)", "values": [{"measurement": "cell count", "setting": "WM115", "result": 84.4, "unit": "%"}, {"measurement": "cell count", "setting": "WM1716", "result": 76.3, "unit": "%"}, {"measurement": "cell count", "setting": "WM1745", "result": 88.9, "unit": "%"}, {"measurement": "cell count", "setting": "WM3526", "result": 82.2, "unit": "%"}, {"measurement": "cell count", "setting": "WM3619", "result": 71.7, "unit": "%"}, {"measurement": "cell count", "setting": "WM451Lu", "result": 96.9, "unit": "%"}]}]}
